From the supplement of paper PMC9446081 come the findings set out here.

Out of some 39,000 compounds screened, about 220 (0.56%) showed activity. This is one part of the list.
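Also: static incubation at 37 °C against the wild-type strain, values averaged over two biological replicates.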

The assay concerns Escherichia coli K-12 BW25113. The experiment in a line: relative growth (OD600 normalised to plate interquartile mean) (fraction); higher = less growth inhibition, active = 0.2 or less. The settings on record: 50 µM; LB; incubation time: overnight (16-24 h).
Regarding `O=c1cc(-c2ccc(O)cc2)oc2cc(O)cc(O)c12`, the relative growth is inactive: 1.06.
In the case of `COc1ccc(NC(=O)Nc2ccc3c(c2)C(=O)N([C@H](C)CO)C[C@@H](C)[C@H](CN(C)S(=O)(=O)c2ccc(OC)cc2)OCCCC[C@H](C)O3)cc1` it was inactive: 1.01; in that of `C[C@@H]1CN([C@@H](C)CO)C(=O)Cc2cc(NC(=O)C3CC3)ccc2O[C@H]1CN(C)C(=O)Nc1ccc2c(c1)OCO2`, inactive: 1.03.
In the case of `C[C@H](CO)N1C[C@H](C)[C@H](CN(C)S(=O)(=O)c2cn(C)cn2)Oc2ccc(NC(=O)Nc3ccc4c(c3)OCO4)cc2C1=O` it was inactive: 1.01; in that of `O=C(C[C@@H]1CC[C@@H]2[C@H](COC[C@H](O)CN2C(=O)Nc2ccc3c(c2)OCO3)O1)N1CCN(c2ccccc2)CC1`, inactive: 1.01.
Regarding `CN1CCN(C(=O)C[C@@H]2CC[C@@H]3[C@H](COC[C@@H](O)CN3S(=O)(=O)c3cccc(F)c3)O2)CC1`, the relative growth was inactive: 0.981.
As for `CC(=O)C1CCC2C3CC=C4CC(O)CCC4(C)C3CCC12C` (stereo unspecified), the figure is inactive: 1.1; as for `COc1ccc(CN(C)C[C@H]2Oc3c(NS(=O)(=O)c4cn(C)cn4)cccc3C(=O)N([C@H](C)CO)C[C@@H]2C)cc1`, inactive: 1.
As for `Cc1noc(C)c1NC(=O)Nc1cccc2c1O[C@@H](CN(C)C(=O)NC(C)C)[C@@H](C)CN([C@@H](C)CO)C2=O`, the figure is inactive: 1.
With `CC(=O)NCC(=O)N1CCOC[C@]2(CC[C@@H](Cn3cccn3)O2)C1`, the relative growth is inactive: 1.01.
As for `C[C@H]1CN([C@@H](C)CO)C(=O)c2cccc(NC(=O)Nc3ccc4c(c3)OCO4)c2O[C@H]1CN(C)C(=O)Nc1cccc2ccccc12`, the figure is inactive: 0.943; as for `C[C@@H]1CN([C@@H](C)CO)C(=O)c2cc(NC(=O)Nc3cccc4ccccc34)ccc2O[C@@H]1CN(C)C(=O)Nc1ccc(F)cc1`, inactive: 1.01.
As for `CC(C)C(=O)NNC(=O)c1ccccc1O`, the figure is inactive: 1.02.
As for `C[C@H](CO)N1C[C@H](C)[C@@H](CN(C)Cc2ccncc2)Oc2c(NC(=O)c3ccncc3)cccc2C1=O`, the figure is inactive: 1; as for `CC1=NN2NC(C(F)(F)F)=NN2C(=O)C1`, inactive: 1; as for `CCCCCCCCC#CCCCCCCCC(=O)O`, inactive: 1.06.
Take `COc1ccc(S(=O)(=O)Nc2ccc3c(c2)C(=O)N([C@@H](C)CO)C[C@H](C)[C@@H](CN(C)C(=O)Nc2c(C)noc2C)OCCCC[C@H](C)O3)cc1`: the relative growth was inactive: 0.995.
As for `C=CC[C@@H](CC(=O)NCCO)C(=O)NCCOC(=O)[C@H](CC=C)NC(=O)OCC1c2ccccc2-c2ccccc21`, the relative growth is inactive: 0.987.
As for `C[C@H]1CN([C@@H](C)CO)C(=O)Cc2cc(NS(=O)(=O)c3ccccc3)ccc2O[C@@H]1CN(C)S(=O)(=O)c1cccs1`, the figure is inactive: 1; as for `O=C(N[C@H]1CC[C@@H](CC(=O)N2CCOCC2)O[C@@H]1CO)c1ccccn1`, inactive: 1.02; as for `C[C@@H]1CN([C@@H](C)CO)C(=O)c2cc(NC(=O)Nc3ccc(C(F)(F)F)cc3)ccc2O[C@H]1CN(C)C(=O)NC1CCCCC1`, inactive: 1.02.
In the case of `C[C@@H]1CN([C@H](C)CO)C(=O)c2cc(NC(=O)Nc3ccc(F)cc3)ccc2O[C@@H](C)CCCCO[C@@H]1CN(C)C(=O)c1ccccc1` it was inactive: 1.02.
As for `O=C(Nc1cc(C(=O)Nc2ccc(S(=O)(=O)O)cc2S(=O)(=O)O)cc(C(=O)Nc2ccc(S(=O)(=O)O)cc2S(=O)(=O)O)c1)Nc1cc(C(=O)Nc2ccc(S(=O)(=O)O)cc2S(=O)(=O)O)cc(C(=O)Nc2ccc(S(=O)(=O)O)cc2S(=O)(=O)O)c1`, the figure is inactive: 0.948; as for `C[C@H]1CN([C@@H](C)CO)C(=O)c2cccc(NC(=O)Nc3ccc(F)cc3)c2O[C@@H]1CN(C)Cc1ccc(Oc2ccccc2)cc1`, inactive: 1.02.
On to `CCOC(=O)[C@H](Cc1ccccc1)NC(=O)c1cc(Cl)c(OCCN2CCN(C)CC2)c(Cl)c1O`, for which the relative growth was inactive: 1.03.
As for `C[C@@H]1CN([C@@H](C)CO)C(=O)c2cc(C#Cc3ccccc3F)cnc2O[C@H]1CN(C)C(=O)Cc1cccnc1`, the figure is inactive: 1.
In the case of `COc1cccc(NC(=O)N2C[C@@H](O)COC[C@H]3O[C@H](CC(=O)NCc4ccccc4F)CC[C@@H]32)c1` it was inactive: 0.996.
As to `C[C@@H]1CN([C@@H](C)CO)C(=O)c2cccc(NS(=O)(=O)c3cn(C)cn3)c2O[C@@H]1CN(C)S(C)(=O)=O`, the relative growth is inactive: 1.02.
As for `NCCC(=O)NCCc1cnc[nH]1`, the figure is inactive: 0.996.
As for `CO[C@@H]1CN(C)C(=O)c2ccc(NS(=O)(=O)CC(F)(F)F)cc2OC[C@H](C)N(C(=O)NC(C)C)C[C@@H]1C`, the figure is inactive: 0.991; as for `CCCS(=O)(=O)N1CCC[C@H](C(=O)NC)C1`, inactive: 1; as for `Cc1ccc(S(=O)(=O)N[C@@H]2CC[C@@H](CCNC(=O)CN3CCOCC3)O[C@H]2CO)cc1`, inactive: 1.04.
As to `NC(=O)N1c2ccccc2C=Cc2ccccc21`, the relative growth was inactive: 1.03.
In the case of `C[C@@H](O)c1cccc(C(F)(F)F)c1` it was inactive: 0.986.
For `O=C(C[C@H]1C[C@@H]2c3cc(NC(=O)Nc4ccc(C(F)(F)F)cc4)ccc3O[C@@H]2[C@@H](CO)O1)NCc1cc(F)ccc1F`, the relative growth was inactive: 1.
For the compound `C[C@@H]1CN([C@H](C)CO)C(=O)c2cc(NC(=O)CCC(F)(F)F)ccc2O[C@@H](C)CCCCO[C@H]1CN(C)C(=O)Nc1cccc2ccccc12`, the relative growth was inactive: 1.02.
In the case of `CC(C)(C)OC(=O)C[C@@H]1CC=CC[C@@H](CC(=O)NCCO)C(=O)N[C@@H](Cc2ccccc2)COC1=O`, the relative growth was inactive: 1.
As for `Cc1noc(C)c1NC(=O)N(C)C[C@@H]1Oc2ccc(NC(=O)Nc3cccc4ccccc34)cc2CC(=O)N([C@@H](C)CO)C[C@@H]1C`, the figure is inactive: 1.01.
In the case of `C[C@H]1CN([C@@H](C)CO)C(=O)c2cccc(NC(=O)Nc3ccc(C(F)(F)F)cc3)c2O[C@H]1CN(C)S(C)(=O)=O` it was inactive: 0.961; in that of `COc1ccc(NC(=O)Nc2ccc3c(c2)CC(=O)N([C@H](C)CO)C[C@@H](C)[C@H](CN(C)Cc2ccc(Oc4ccccc4)cc2)O3)cc1`, inactive: 1.03.
In the case of `C[C@H]1CN([C@@H](C)CO)C(=O)c2cccc(NC(=O)c3nc4ccccc4s3)c2O[C@@H]1CN(C)Cc1ccc(C(=O)Nc2ccccc2N)cc1` it was inactive: 1.01.
